The other results are listed elsewhere or left out. Single values are uncertain, as repeats are few or missing.
Tests used:
Assay in all cases: cell count relative to DMSO control; melanoma cells; higher = more viable cells
Conditions in all cases: library dose: standard library concentration; 72 h
G361 = system: G361
IPC-298 = system: IPC-298
IST-MEL1 = system: IST-MEL1
LB2518-MEL = system: LB2518-MEL
LOXIMVI = system: LOXIMVI
MEL-HO = system: MEL-HO
MZ2-MEL = system: MZ2-MEL
MeWo = system: MeWo
RPMI7951 = system: RPMI7951
RVH-421 = system: RVH-421
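Note: cells treated in 1,536-well plates, then fixed and DAPI-stained, with nuclei counted from automated high-throughput microscope images.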

SMILES	cell count (G361) [%]	cell count (IPC-298) [%]	cell count (IST-MEL1) [%]	cell count (LB2518-MEL) [%]	cell count (LOXIMVI) [%]	cell count (MEL-HO) [%]	cell count (MZ2-MEL) [%]	cell count (MeWo) [%]	cell count (RPMI7951) [%]	cell count (RVH-421) [%]
CN(c1ncccc1CNc1nc(Nc2ccc3c(c2)CC(=O)N3)ncc1C(F)(F)F)S(C)(=O)=O + Cn1cncc1[C@@](N)(c1ccc(Cl)cc1)c1ccc2c(c1)c(-c1cccc(Cl)c1)cc(=O)n2C [tipifarnib] (first compound 0.4 µM, partner dose 0.05 µM)	72.7	83.3	75.6	77.7	81.6	95.2	91.5	85.3	75.5	75.3
CN(c1ncccc1CNc1nc(Nc2ccc3c(c2)CC(=O)N3)ncc1C(F)(F)F)S(C)(=O)=O + C[C@@H](Oc1cc(-c2cnn(C3CCNCC3)c2)cnc1N)c1c(Cl)ccc(F)c1Cl [Crizotinib] (first compound 0.4 µM, partner dose 1 µM)	104	98.5	90.8	71.5	123	89.6	82.4	101	80.1	79.7
CN(c1ncccc1CNc1nc(Nc2ccc3c(c2)CC(=O)N3)ncc1C(F)(F)F)S(C)(=O)=O + CC(C)(C)c1cnc(CSc2cnc(NC(=O)C3CCNCC3)s2)o1 [SNS-032] (first compound 0.4 µM, partner dose 0.05 µM)	82.6	102	84.9	64.6	58.4	88.7	91.2	83.2	16.3	79.6
C=C(c1ccc(C(=O)O)cc1)c1cc2c(cc1C)C(C)(C)CCC2(C)C [Bexarotene] + CCCCCCCCCCCC1=C(O)C(=O)C=C(O)C1=O [Embelin] (first compound 10 µM, partner dose 6 µM)	62.1	66	54.8	109	93.2	74.2	94.2	92.9	65.4	90.5
CCCS(=O)(=O)Nc1ccc(F)c(C(=O)c2c[nH]c3ncc(Cl)cc23)c1F + C[C@]1(c2nc3c(C(N)=O)cccc3[nH]2)CCCN1 [Veliparib] (first compound 0.4 µM, partner dose 7 µM)	56.5	74.1	90.7	85.8	67.4	78.6	71	96.3	98.2	78.2
CS(=O)(=O)c1ccc(C(=O)Nc2ccc(Cl)c(-c3ccccn3)c2)c(Cl)c1 [vismodegib] + Cc1cc([N+](=O)[O-])ccc1NS(=O)(=O)c1cc(Cl)ccc1Cl [FH535] (first compound 5 µM, partner dose 5 µM)	56.3	46.6	51.9	71.1	66.8	55.7	78.7	73.8	80.9	64.5
CS(=O)(=O)c1ccc(C(=O)Nc2ccc(Cl)c(-c3ccccn3)c2)c(Cl)c1 [vismodegib] + COc1cc2ncnc(Nc3ccc(Oc4ccccc4)cc3)c2cc1OC [SrcI1] (first compound 5 µM, partner dose 10 µM)	66.4	73.2	90.5	132	78.9	85.6	59.8	72.4	60.4	122
NC1(c2ccc(-c3nc4ccn5c(=O)[nH]nc5c4cc3-c3ccccc3)cc2)CCC1 + Oc1nc(-c2ccc(C(F)(F)F)cc2)nc2c1CSCC2 [XAV939] (first compound 2 µM, partner dose 10 µM)	87.8	99.2	107	94.3	105	92.6	116	84	103	96.3
CN(c1ncccc1CNc1nc(Nc2ccc3c(c2)CC(=O)N3)ncc1C(F)(F)F)S(C)(=O)=O + Nc1ccn([C@@H]2O[C@H](CO)[C@@H](O)C2(F)F)c(=O)n1 [gemcitabine] (first compound 0.4 µM, partner dose 0.002 µM)	35.5	46.3	43.7	68.3	85.7	50	67.2	56.5	55.8	53.2
C=C(c1ccc(C(=O)O)cc1)c1cc2c(cc1C)C(C)(C)CCC2(C)C [Bexarotene] + c1cc(-c2cnn3cc(-c4ccc(OCCN5CCCCC5)cc4)cnc23)ccn1 [Dorsomorphin] (first compound 10 µM, partner dose 2 µM)	43.3	76.2	85	95.8	100	84	82.3	69	69.9	103
C=C(c1ccc(C(=O)O)cc1)c1cc2c(cc1C)C(C)(C)CCC2(C)C [Bexarotene] + NCC(=O)Nc1ccc(-n2nc(C(F)(F)F)cc2-c2ccc3c(ccc4ccccc43)c2)cc1 [OSU03012] (first compound 10 µM, partner dose 5 µM)	55.2	64.5	81.4	105	80.9	70.5	83.8	89.1	87.7	84.5
CS(=O)(=O)c1ccc(C(=O)Nc2ccc(Cl)c(-c3ccccn3)c2)c(Cl)c1 [vismodegib] + O=C(O)C(=O)Nc1sc2c(c1C(=O)O)CCNC2 [TCS401] (first compound 5 µM, partner dose 8.33333 µM)	93.1	93.8	107	98.5	96.4	90.6	102	86.6	90.7	137
C=C(c1ccc(C(=O)O)cc1)c1cc2c(cc1C)C(C)(C)CCC2(C)C [Bexarotene] + COc1ccc(Cl)c(Nc2nc3ccccc3nc2NS(=O)(=O)c2cccc(NC(=O)C(C)(C)N)c2)c1 [XL147] (first compound 10 µM, partner dose 4 µM)	91.1	88	70.2	99.7	84.5	73.7	91.2	77.7	141	144
NC1(c2ccc(-c3nc4ccn5c(=O)[nH]nc5c4cc3-c3ccccc3)cc2)CCC1 + C[C@@H](Oc1cc(-c2cnn(C3CCNCC3)c2)cnc1N)c1c(Cl)ccc(F)c1Cl [Crizotinib] (first compound 2 µM, partner dose 1 µM)	70.4	87.3	79.2	70.8	127	68.4	94.2	65.7	70.7	165
CS(=O)(=O)c1ccc(C(=O)Nc2ccc(Cl)c(-c3ccccn3)c2)c(Cl)c1 [vismodegib] + Cc1nc(Nc2ncc(C(=O)Nc3c(C)cccc3Cl)s2)cc(N2CCN(CCO)CC2)n1 [dasatanib] (first compound 5 µM, partner dose 0.02 µM)	80.3	82.1	71.3	116	15.8	86.6	57	79.7	37.7	76.8
NC1(c2ccc(-c3nc4ccn5c(=O)[nH]nc5c4cc3-c3ccccc3)cc2)CCC1 + Cn1cncc1[C@@](N)(c1ccc(Cl)cc1)c1ccc2c(c1)c(-c1cccc(Cl)c1)cc(=O)n2C [tipifarnib] (first compound 2 µM, partner dose 0.05 µM)	69.5	87.2	68.1	48.2	76.5	62.2	95.2	73.7	93.4	77.9
CN(c1ncccc1CNc1nc(Nc2ccc3c(c2)CC(=O)N3)ncc1C(F)(F)F)S(C)(=O)=O + CC1(C)NC(=O)N(c2ccc([N+](=O)[O-])c(C(F)(F)F)c2)C1=O [nilutamide] (first compound 0.4 µM, partner dose 5 µM)	69.9	97.9	71.1	76.8	74.1	89.2	94.1	95.1	59.8	65.4
C=C(c1ccc(C(=O)O)cc1)c1cc2c(cc1C)C(C)(C)CCC2(C)C [Bexarotene] + O=C(O)c1ccc(-c2c[nH]c3ncc(-c4ccccc4)cc23)cc1C1CCCC1 [GSK650394] (first compound 10 µM, partner dose 0.8 µM)	49.1	101	64.2	84.7	95.3	76.4	91.9	77.4	62.5	81.4
C=C(c1ccc(C(=O)O)cc1)c1cc2c(cc1C)C(C)(C)CCC2(C)C [Bexarotene] + COC(=O)c1sccc1S(=O)(=O)Nc1ccc(Nc2ccccc2)cc1OC [GSK0660] (first compound 10 µM, partner dose 5 µM)	94.2	71.5	83.9	122	129	86.3	63.9	83	60.4	86.3
CN(c1ncccc1CNc1nc(Nc2ccc3c(c2)CC(=O)N3)ncc1C(F)(F)F)S(C)(=O)=O + O=S(=O)(c1ccccc1)N(CC(F)(F)F)c1ccc(C(O)(C(F)(F)F)C(F)(F)F)cc1 [T0901317] (first compound 0.4 µM, partner dose 7 µM)	57.2	69.4	69.2	65.4	90.8	67.6	72.9	77.3	59.4	76.4
CN(c1ncccc1CNc1nc(Nc2ccc3c(c2)CC(=O)N3)ncc1C(F)(F)F)S(C)(=O)=O + C#Cc1cccc(Nc2ncnc3cc(OCCOC)c(OCCOC)cc23)c1 [erlotinib] (first compound 0.4 µM, partner dose 4 µM)	56.1	59.2	75.6	65.5	88.9	62	52.2	83.8	52.4	71.7
CCCS(=O)(=O)Nc1ccc(F)c(C(=O)c2c[nH]c3ncc(Cl)cc23)c1F + COc1ccc(-c2ccc3c(N4CCOCC4)nc(N4C[C@@H](C)O[C@@H](C)C4)nc3n2)cc1CO [KU0063794] (first compound 0.4 µM, partner dose 0.1 µM)	50	55.1	73.7	82.9	81.8	71.6	88.7	76.8	94.4	70.3

Source: the supplement of paper PMC4604168 (melanoma cell lines)
